According to a collection of fitness landscapes (doi:10.1038/s41467-024-54723-y):
Whole data set: some 18,000 sequences, median “TetR repression strength (sort-seq, GFP reporter)” near 0.23, cut for the highest 2% near 0.68. The list shows a part of the results.

What follows are sequences tested against TetR (class B, Tn10) (UniProt P04483) (assay: TetR repression strength (sort-seq, GFP reporter) (relative to tetO2 = 1); higher = stronger repression). Details: E. coli.
In short: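 Three independent transformations of E. coli SIG10-MAX were made with a low-copy plasmid library randomizing eight operator positions between a constitutive promoter and sfGFP, with constitutive TetR. Following 5 h at 37 °C in LB plus 50 µg/mL chloramphenicol, 10^6 cells went through FACS into 13 fluorescence bins, and each bin was sequenced by Illumina. Repression strength was defined as the top bin index plus one minus the read-weighted mean bin, divided by the unaltered operator's value. Averages included only members reaching ≥30 reads in all replicates with a CV ≤0.5.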

Sequence of UniProt P04483 (P04483 whole entry): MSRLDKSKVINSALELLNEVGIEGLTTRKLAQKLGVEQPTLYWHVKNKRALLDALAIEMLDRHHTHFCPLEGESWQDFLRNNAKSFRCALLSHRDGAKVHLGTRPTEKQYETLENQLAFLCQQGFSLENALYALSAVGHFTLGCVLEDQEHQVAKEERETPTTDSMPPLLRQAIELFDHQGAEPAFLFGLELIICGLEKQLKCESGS

Sequence	TetR repression strength
TCCCCTAGAGTAACGGAGA	0.169
TCCCAATGAGTGTGGGAGA	0.244
TCCCCACTAGTAACAGAGA	0.311
TCCCAGTCAGTTGATGAGA	0.454
TCCCGTGGAGTAAACGAGA	0.387
TCCCAGAGAGTAGCCGAGA	0.386
TCCCCACTAGTATAGGAGA	0.207
TCCCAACTAGTTATAGAGA	0.346
TCCCTCCCAGTGAAAGAGA	0.588
TCCCTGATAGTATAGGAGA	0.258
TCCCATTGAGTGACAGAGA	0.582
TCCCGATAAGTCGTGGAGA	0.0145
TCCCGTGCAGTGGCAGAGA	0.324
TCCCAAACAGTCCAGGAGA	0.00506
TCCCAAGTAGTATCGGAGA	0.405
TCCCGTGGAGTAAGGGAGA	0.43
TCCCGATTAGTGCGGGAGA	0.00518
TCCCGTCTAGTGGGAGAGA	0.503
TCCCTAAAAGTCCGGGAGA	0.388
TCCCACTCAGTATAGGAGA	0.195
TCCCGTAAAGTCAGTGAGA	0.074
TCCCGCAGAGTACCAGAGA	0.321
TCCCGCGCAGTCGTGGAGA	0.33
TCCCATTAAGTAGAGGAGA	0.335
TCCCTTCCAGTGAGAGAGA	0.276
TCCCGGCTAGTGGAGGAGA	0.292

Sequence	TetR repression strength
TCCCCACAAGTGAAAGAGA	0.32
TCCCGGCTAGTAGACGAGA	0
TCCCGGGGAGTGCGGGAGA	0.178
TCCCTAACAGTTACAGAGA	0.203
TCCCAGACAGTAGCCGAGA	0.104
TCCCGTCCAGTAGAGGAGA	0.255
TCCCCGCAAGTGTGGGAGA	0.342
TCCCCGTTAGTTGTGGAGA	0.327
TCCCGGGGAGTTGTAGAGA	0.4
TCCCCCCAAGTGGCCGAGA	0.244
TCCCCCCTAGTGTGGGAGA	0.336
TCCCCCGCAGTGCCTGAGA	0.231
TCCCGAGCAGTGGGCGAGA	0.155
TCCCCGCTAGTCAATGAGA	0.424
TCCCGAATAGTATACGAGA	0.136
TCCCGTGTAGTACCGGAGA	0.159
TCCCAATAAGTGAGGGAGA	0.148
TCCCAAGTAGTTTAGGAGA	0.174
TCCCTCTGAGTCGCGGAGA	0.205
TCCCTGTCAGTCTCGGAGA	0.249
TCCCAAATAGTAGACGAGA	0.373
TCCCGGGAAGTAGGCGAGA	0.849
TCCCGTAGAGTAGGAGAGA	0.36
TCCCTGTCAGTACGAGAGA	0.215
TCCCACTGAGTCACAGAGA	0.147
TCCCTTGTAGTCGTGGAGA	0.0733

Sequence	TetR repression strength
TCCCGTCGAGTGCCAGAGA	0.311
TCCCCCAAAGTAAGCGAGA	0.184
TCCCGGCGAGTGTGTGAGA	0.224
TCCCCCAAAGTTCAGGAGA	0.225
TCCCCCGGAGTGGGGGAGA	0.126
TCCCTATAAGTTGTTGAGA	0.191
TCCCACGGAGTCCGTGAGA	0.0963
TCCCTAGGAGTACGCGAGA	0.226
TCCCCGCGAGTTGAGGAGA	0.213
TCCCTGTCAGTGCGCGAGA	0.227
TCCCACAGAGTACACGAGA	0.171
TCCCAAGGAGTGGGAGAGA	0.193
TCCCGATCAGTTATAGAGA	0.579
TCCCGGGCAGTGACAGAGA	0.542
TCCCGTGTAGTAATGGAGA	0.238
TCCCTTGTAGTGCGTGAGA	0.0963
TCCCGCCGAGTCTGTGAGA	0.192
TCCCATAGAGTGGCGGAGA	0.267
TCCCATTAAGTTAAGGAGA	0.112
TCCCAGAGAGTAGTGGAGA	0.147
TCCCAAAAAGTAGGGGAGA	0.195
TCCCCATAAGTGTATGAGA	0.587
TCCCGAAGAGTGCATGAGA	0.251
TCCCTGATAGTTTGAGAGA	0.382
TCCCTTAGAGTGATTGAGA	0.207
TCCCTCGGAGTAAGCGAGA	0.0829

Sequence	TetR repression strength
TCCCGGGAAGTCTGCGAGA	0.164
TCCCCGGCAGTCTGCGAGA	0.266
TCCCCGCGAGTGTGCGAGA	0.295
TCCCCAGTAGTGGCCGAGA	0.211
TCCCACGCAGTTGCTGAGA	0.133
TCCCATTCAGTATACGAGA	0.238
TCCCGGTTAGTAGGCGAGA	0.143
TCCCAAACAGTTGAGGAGA	0.137
TCCCCCCCAGTGGACGAGA	0.248
TCCCTGCAAGTCGCCGAGA	0.00451
TCCCCAGGAGTGCAGGAGA	0.263
TCCCAGGGAGTCATTGAGA	0.358
TCCCGTTGAGTGTAGGAGA	0.169
TCCCCAGAAGTGGGGGAGA	0.266
TCCCGACAAGTACAGGAGA	0.207
TCCCGCGGAGTGAGTGAGA	0.391
TCCCTCGCAGTACGGGAGA	0.211
TCCCAGTCAGTTCGGGAGA	0.489
TCCCTTAGAGTATCGGAGA	0.0706
TCCCGGGCAGTCGTTGAGA	0.329
TCCCCGTTAGTGCCTGAGA	0.468
TCCCGAAGAGTGAGAGAGA	0.311
TCCCAGGCAGTGCGGGAGA	0.264
TCCCTTGAAGTAAAGGAGA	0.368
